The supplement of paper PMC10369915
Some of the results follow. Rule as the data show it: active = 3.2 or more and inactive = the rest. Most of these values are background signal.

B1: CRKL_HUMAN_127_YA (peptide)
chain: TAEDNLEYVRTLADF
B2: CS025_HUMAN_63_YA (peptide)
chain: EAPGEQLYQQSRAAV
B3: CSF1R_HUMAN_561 (peptide)
chain: ESYEGNSYTFIDPTQ
B4: CSF1R_HUMAN_561_YA (peptide)
chain: ESAEGNSYTFIDPTQ
B5: CSF1R_HUMAN_923 (peptide)
chain: EDRRERDYTNLPSSS
B6: CSF2RB_HUMAN_466 (peptide)
chain: ALRFCGIYGYRLRRK
B7: CSF2RB_HUMAN_466_YA (peptide)
chain: ALRFCGIYGARLRRK
B8: CSF2RB_HUMAN_882 (peptide)
chain: KALKQQDYLSLPPWE
B9: CSK22_HUMAN_13 (peptide)
chain: AGSRARVYAEVNSLR
B10: CSKI1_HUMAN_253 (peptide)
chain: NAHVRNTYSQTALDI
B11: CSNK2A1_HUMAN_182_YA (peptide)
chain: DWGLAEFYHPGQEAN
B12: CTNB1_HUMAN_142 (peptide)
chain: AVVNLINYQDDAELA
B13: CTND1_HUMAN_221 (peptide)
chain: SRHYEDGYPGGSDNY
B14: CTND1_HUMAN_221_YA (peptide)
chain: SRHAEDGYPGGSDNA
B15: CTND1_HUMAN_228 (peptide)
chain: YPGGSDNYGSLSRVT
B16: CTND1_HUMAN_228_YA (peptide)
chain: APGGSDNYGSLSRVT
B17: CTND1_HUMAN_291 (peptide)
chain: DDQRSMGYDDLDYGM
B18: CTND1_HUMAN_291_YA (peptide)
chain: DDQRSMGYDDLDAGM

target: SHP2 C-SH2 domain E139D; test: enrichment score (SH2-bound / input frequency) (ratio); bacterial display of known human phosphotyrosine sites (pTyr-Var adds point mutants) read by sequencing; higher = stronger binding; tyrosines were phosphorylated by kinases first; conditions: peptide library: Human pTyr
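Also: displayed peptides selected on beads carrying the immobilized SH2 domain, with library peptides lacking any tyrosine serving as negative controls.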

Enrichment score, inactive:
B1 0.801
B2 0.567
B3 0.64
B4 0.558
B5 0.736
B6 0.599
B7 0.617
B8 0.756
B9 2.29
B10 0.696
B11 0.596
B12 0.705
B13 0.68
B14 0.686
B15 0.653
B16 0.76
B17 0.936
B18 0.904

target: SHP2 C-SH2 domain wild-type; test: as above; conditions: peptide library: Human pTyr

Enrichment score, active:
B9 5.43

Enrichment score, inactive:
B1 0.784
B2 0.537
B3 0.632
B4 0.602
B5 0.672
B6 0.558
B7 0.74
B8 0.663
B10 0.578
B11 0.571
B12 0.676
B13 0.689
B14 0.613
B15 0.527
B16 0.604
B17 0.618
B18 0.681

target: SHP2 N-SH2 domain L43F; test: as above; conditions: peptide library: Human pTyr

Enrichment score, inactive:
B1 0.638
B2 0.585
B3 0.507
B4 0.673
B5 0.67
B6 0.532
B7 0.696
B8 0.764
B9 0.699
B10 0.653
B11 0.722
B12 0.722
B13 0.622
B14 0.74
B15 0.592
B16 0.688
B17 0.742
B18 0.761

target: SHP2 N-SH2 domain T42A; test: as above; conditions: peptide library: Human pTyr

Enrichment score, inactive:
B1 0.737
B2 0.535
B3 0.687
B4 0.516
B5 0.62
B6 0.693
B7 0.751
B8 0.754
B9 0.901
B10 0.626
B11 0.585
B12 0.738
B13 0.518
B14 0.591
B15 0.595
B16 0.755
B17 0.944
B18 0.72

target: SHP2 N-SH2 domain T52S; test: as above; conditions: peptide library: Human pTyr

Enrichment score, inactive:
B1 1.12
B2 0.529
B3 0.577
B4 0.863
B5 0.602
B6 0.628
B7 0.669
B8 0.91
B9 0.624
B10 0.742
B11 0.682
B12 0.62
B13 0.569
B14 0.644
B15 0.74
B16 0.691
B17 0.736
B18 0.813

target: SHP2 N-SH2 domain wild-type; test: as above; conditions: peptide library: Human pTyr

Enrichment score, inactive:
B1 0.888
B2 0.514
B3 0.697
B4 0.514
B5 0.666
B6 0.662
B7 0.739
B8 0.714
B9 0.69
B10 0.634
B11 0.658
B12 0.791
B13 0.622
B14 0.734
B15 0.695
B16 0.873
B17 0.722
B18 0.93
